Source: ChEMBL document CHEMBL4888484, “Replenishing the malaria drug discovery pipeline: Screening and hit evaluation of the MMV Hit Generation Library 1 (HGL1) against asexual blood stage Plasmodium falciparum ,using a nano luciferase reporter read-out” (2022)
Among all 150,000 compounds or so, about 540 (0.36%) showed an effect of 50% or more. The list shows a part of the results.

tested on: Plasmodium falciparum; experiment: Primary screen in NF54 nanoGlo assay, in single point, at 2uM, 72h; a lower Z score goes with more inhibition; format: functional, Erythrocyte; conditions: timepoint 72 hour

Structure (SMILES)	% Inhibition	Z score
O=C(NC1CCOC1C1CC1)N1CC(F)C1 (stereo not given)	-6%	1.25
CC1CC1C(=O)NCCc1ccc2[nH]ccc2c1 (stereo not given)	-1%	0.13
CC(=O)N[C@@H]1COCC[C@@H]1OCC1CCC1	-5%	0.99
O=C(NCc1ccncc1)[C@H]1CCCN(c2nnc3ccc(C(F)(F)F)cn23)C1	-20%	2.14
CCOC[C@@H](O)CN(C1CC1)C1Cc2ccccc2C1	1%	-0.08
CCOc1ccc(CN(CC#N)CC(=O)OC)cc1OC	6%	-1.04
Cc1ccc(-n2c(=O)c3cc4c(=O)n(-c5ccc(C)c(C)c5)c(=O)c4c(C(=O)c4ccccc4)c3c2=O)cc1C	-7%	1.04
O=C(Nc1ccc2nc3n(c(=O)c2c1)CCCC3)[C@@H]1CCCO1	-9%	1.09
CC(C)=CCN1C(=O)[C@@H]2CC[C@H]1CN(C(=O)CCc1ccncc1)C2	-13%	1.23
CCN(C(=O)c1coc(COc2ccc3sc(C)nc3c2)n1)C1CCOCC1	-19%	2.39
O=C(N[C@@H](Cc1ccccc1)C(=O)Nc1nccs1)C1COc2ccccc2O1 (stereo not given in full)	-4%	0.59
CNC(=O)N[C@H]1CCCCc2sccc21	-17%	3.31
CCOC(=O)c1cn(C[C@H]2CCCO2)cn1	-19%	2.16
CC(C)c1n[nH]c2c1CN(C(=O)c1ccc(-c3nccc(N)n3)cc1)CC2	-7%	1.48
Cc1ccc(NC2CCOCC2C)cc1C(=O)NC(C)C (stereo not given)	-5%	0.89
Cn1cc(Cl)c(C(=O)N2CCC(c3cscn3)CC2)n1	-15%	2.02
CC(C)Cc1csc(CN2C(=O)CNC2=O)n1	-21%	3.22
C[C@@H](Cn1cncn1)C(=O)NCC1(CO)CCC1	0%	0
Cc1ccc2c(Nc3ccc(C)c(C)c3)c(C(=O)N3CCCC3)cnc2n1	-6%	0.91
CCCc1cnc(C)nc1-c1cccc(C(=O)N2CCS(=O)(=O)CC2)c1	-3%	0.52
Cc1cc(C)nc(CN(C)C(=O)c2cccc(O)n2)c1	-7%	1.05
CCCN(Cc1cc(NC(=O)C(C)C)ccc1N(C)C)C(=O)c1ccc(F)cc1	-15%	2.62
CCC[C@H]1CN(c2noc(C3CC3)n2)C[C@@H]1C(=O)O	-8%	1.31
O=C(c1scc2c1CCCC2)N1CCOC[C@@H](O)C1	-11%	1.68
O=C(NC[C@H]1C[C@@H]1c1ccc(Cl)cc1Cl)c1cccc(=O)[nH]1	-4%	0.8
Cc1cc(OCc2nc(C)c(C(=O)NC[C@H]3CCCO3)s2)ccc1Cl	-3%	0.48
c1cc(Oc2ccc3nnnn3n2)cc(-c2nnco2)c1	-14%	1.28
CCCS(=O)(=O)N1CC[C@H](Cc2nnc(-c3ccccc3)o2)C1	-2%	0.31

Structure (SMILES)	% Inhibition	Z score
COc1ccc(Cl)cc1N(Cc1ccccc1)Cc1ccccc1	-2%	0.32
O=C(CC1=CCCCC1)N[C@H](c1ccc(F)cc1)c1ncc[nH]1	1%	-0.1
N#Cc1cccc(COc2cccc(CNCC3(O)CCOCC3)c2)c1	-2%	0.34
COc1ccc2nc3oc(C(=O)N[C@@H](C)CCc4ccccc4)cc3cc2c1	29%	-3.88
CCCCn1nc(CC2CCN(C)CC2)nc1Cn1cc(C)c(=O)[nH]c1=O	0%	0.07
O=C(CN1C(=O)C2(CCCC2)N=C1O)Nc1ccc(Oc2ccccc2)cc1	3%	-0.36
CCCN1CCN(C(=O)CCn2ccnc2)C(C)(C)C1=O	-17%	1.81
CCc1onc(C)c1[C@@H]1CCCN1Cc1cc(OC)c(O)c(OC)c1	-6%	1
COCC1(CNCc2ccc(C)cn2)CCC1	11%	-1.53
Cn1cc([C@@H](NC(=O)c2ccnc(C(=O)O)c2)C(C)(C)C)cn1	-10%	1.55
O=C1CC[C@@H](C(=O)NCCc2ccc(O)cc2)NC(=O)N1	3%	-0.43
Cn1cc(NC(=O)c2cc(-c3cccc(Cl)c3)nn2C)cn1	-8%	1.07
CC(NC(=O)c1ccoc1)C(=O)NC(C#N)c1cccc(Cl)c1 (stereo not given)	-6%	1.1
O=C1CCCc2cc3c(cc2N1)OCCO3	-2%	0.3
Cn1cccc1C(O)CCNC(=O)C1CC=CCC1 (stereo not given)	-8%	0.92
CO[C@@H](Cn1c(=O)ccn1-c1ccccn1)C1CCCC1	-5%	0.96
Cc1ccc2c(C)cc(N3CCC[C@H](O)CC3)nc2c1C	5%	-1.08
CN1c2ccccc2N(CCNC(=O)CC(F)(F)F)S1(=O)=O	-16%	2.4
Cc1ccccc1[C@]1(O)CCN(CC(=O)NCC2CCCCC2)C1	-5%	0.95
CN(C(=O)c1cc(=O)c2cccc(F)c2[nH]1)[C@H]1CS(=O)(=O)C[C@@H]1O	-16%	2.25
CN1C[C@@H](NC(=O)Nc2ccc(-c3cc[nH]n3)cc2)CCC1=O	1%	-0.15
COc1ccc(-c2nnc(N3C[C@@H]4[C@@H](CF)[C@@H]4C3)n2C)c(OC)c1	-5%	0.88
O=C(c1c(F)cccc1F)N1CCC[C@H]1c1cccs1	-3%	0.48
CC(C)C(=O)N1CCC([C@@H]2CN(C(=O)c3ccc4ccccc4n3)C[C@H]2CO)CC1	3%	-0.39
CCCCn1nc(-c2ccco2)nc1-c1cn[nH]c1	-7%	1.22
Cc1cc(C2CCC2)nc(N2C[C@H](NC(=O)CCO)[C@@H](C(C)C)C2)n1	-10%	1.72
CCn1nc(NC(=O)c2ccc(CN3CCN(C(C)C)CC3)cc2)cc1C	-3%	0.54
